# Test results taken from PMC4336329 (PLoS ONE, 2015).
# About 14,000 (4.5%) of roughly 310,000 compounds showed an effect of 50% or more. The effect is printed as a negative number. Some of the results follow.
# Target: human ether-à-go-go-related gene (hERG) potassium channel (human, UniProt Q12809)
# Assay: primary screen, population patch clamp on CHO cells stably expressing hERG
# 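Note: peak tail current of the secondary pulse compared with the same well before compound.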
# Chain of human ether-à-go-go-related gene (hERG) potassium channel (Q12809 whole entry, looked up): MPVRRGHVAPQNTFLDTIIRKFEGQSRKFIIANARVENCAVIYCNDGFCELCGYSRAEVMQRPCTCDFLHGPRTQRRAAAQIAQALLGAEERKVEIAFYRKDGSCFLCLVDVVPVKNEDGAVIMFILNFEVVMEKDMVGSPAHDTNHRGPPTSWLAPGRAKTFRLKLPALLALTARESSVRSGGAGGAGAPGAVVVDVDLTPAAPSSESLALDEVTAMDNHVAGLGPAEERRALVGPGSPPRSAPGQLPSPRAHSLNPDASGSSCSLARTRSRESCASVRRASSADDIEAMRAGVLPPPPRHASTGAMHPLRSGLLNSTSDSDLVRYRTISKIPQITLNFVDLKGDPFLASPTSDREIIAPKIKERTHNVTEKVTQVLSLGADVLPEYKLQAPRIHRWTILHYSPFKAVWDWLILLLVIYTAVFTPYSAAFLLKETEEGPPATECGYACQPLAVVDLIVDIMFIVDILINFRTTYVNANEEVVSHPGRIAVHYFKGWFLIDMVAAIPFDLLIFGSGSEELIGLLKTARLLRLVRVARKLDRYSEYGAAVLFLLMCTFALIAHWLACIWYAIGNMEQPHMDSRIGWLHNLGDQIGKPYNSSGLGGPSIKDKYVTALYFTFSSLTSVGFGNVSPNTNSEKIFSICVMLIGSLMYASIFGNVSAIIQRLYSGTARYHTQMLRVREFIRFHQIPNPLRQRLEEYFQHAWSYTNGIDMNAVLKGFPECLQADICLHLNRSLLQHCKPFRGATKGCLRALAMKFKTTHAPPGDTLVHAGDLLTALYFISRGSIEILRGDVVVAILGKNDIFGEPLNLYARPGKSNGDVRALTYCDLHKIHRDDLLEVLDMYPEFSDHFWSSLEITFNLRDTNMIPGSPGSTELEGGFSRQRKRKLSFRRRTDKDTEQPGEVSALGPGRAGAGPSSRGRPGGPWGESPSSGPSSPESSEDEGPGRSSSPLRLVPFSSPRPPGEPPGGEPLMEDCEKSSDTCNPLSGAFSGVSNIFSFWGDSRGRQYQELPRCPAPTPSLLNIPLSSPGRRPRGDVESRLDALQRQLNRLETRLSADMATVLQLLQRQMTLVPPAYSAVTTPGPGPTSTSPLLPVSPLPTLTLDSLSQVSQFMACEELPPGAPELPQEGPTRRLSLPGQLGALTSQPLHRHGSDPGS
row,Compound,"hERG current change (%, negative = inhibition) at 10uM"
1,COC(=O)c1sc(NC(=O)c2cc(-c3ccccc3)nc3ccccc23)c(C#N)c1C,-2.37%
2,Cc1ccc2c(c1)c(C)c(C)n2CC(O)Cn1nc(C)c(Br)c1C (stereo not shown),12%
3,CCC(C)N1C(=O)CCC1C(=O)NCCc1ccc(Cl)cc1 (stereo not shown),-3.57%
4,Cc1onc(-c2ccccc2)c1C(=O)NC(C)c1ccccc1 (stereo not shown),12.7%
5,Cc1ccc(C)c(N2CC(O)(c3cccs3)[N+]3=C2CCCC3)c1.[Br-] (stereo not shown),-23%
6,CCOC(=O)C1CCN(C(=O)Cn2nc(CC)n3cccc3c2=O)CC1,-0.254%
7,CCOC(=O)/C=C/c1nc(C(=O)OCC)c(C)c(=O)[nH]1,25.5%
8,CCCc1c(C(=O)N/N=C/c2cccc3ccccc23)nnn1-c1nonc1N,12.4%
9,CN1CCN(C(=O)C2=C[C@@H](C3CCCCC3)C[C@@H](OCCCCO)O2)CC1,-8.64%
10,Cc1ccc(CN(C(=O)c2ccco2)C(C(=O)NC2CCCC2)c2cccnc2)cc1 (stereo not shown),-1.98%
11,Cn1c(Cn2cnc(Cl)c2Cl)nc2ccccc21,-0.754%
12,O=C(Cc1ccccc1)NCC(=O)OCC(=O)c1cccc([N+](=O)[O-])c1,-1.23%
13,CCOC(=O)C1(Cc2ccc(OC)cc2)CCN(C(=O)CCc2cccnc2)CC1,-10.9%
14,COc1ccc(C(=O)Nc2ccccc2C(=O)N2CCOCC2)cc1OC,18.7%
15,Cc1ccc(-n2c(=O)c(C#N)cc3c(=O)n4cccc(C)c4nc32)cc1,1.03%
16,Cc1ccc(OCC(O)CNCc2ccccc2)cc1C (stereo not shown),-33.5%
17,O=C(COc1ccc(F)cc1)N(Cc1cccs1)C1CCS(=O)(=O)C1 (stereo not shown),-33.4%
18,CCCCOc1ccc(C(O)(CCC)CCN2CCOCC2)cc1 (stereo not shown),-51.2%
19,CCOc1ccc(OCCn2ccnc2)cc1,-3.62%
20,COC(=O)C1=NNC2(c3ccc(Cl)cc3)C(=O)N(c3ccc(Cl)cc3)C(=O)C12 (stereo not shown),-9.89%
21,CC1(C)CC(=O)CC(=O)/C1=N\Nc1c(Cl)cc(Cl)cc1Cl,-4.28%
22,CC(Cc1ccccc1)NC(=O)C(c1ccc(N)cc1)c1ccc(N)cc1 (stereo not shown),8.62%

row,Compound,"hERG current change (%, negative = inhibition) at 10uM"
1,Cc1nc(N2CCOCC2)nc(N2CCC(C)CC2)c1[N+](=O)[O-],-0.964%
2,C(=N/Nc1nc(-c2ccccc2)cc(-c2ccccc2)n1)/c1cccnc1,-3.66%
3,CC(C)c1ccc(NC(=O)CN2C(=O)NC(Cc3c[nH]c4ccccc34)C2=O)cc1 (stereo not shown),-25.5%
4,O=C(CCC(=O)c1ccc(F)cc1)NN1C(=O)NC2(CCCCC2)C1=O,-12.4%
5,COc1ccc(C(C(=O)NCC2CCCO2)N(C(=O)CNC(=O)c2cccs2)c2ccccc2)cc1OC (stereo not shown),6.13%
6,CCC(CO)Oc1cc(NCc2ccccc2F)c2ncn(C(C)C)c2c1 (stereo not shown),-21%
7,COc1ccc(NC(=O)CN2C(=O)COc3ccc(S(=O)(=O)N4CCOCC4)cc32)cc1,-0.308%
8,O=C(NC1CC1)c1ccc2c(c1)S(=O)(=O)c1cc(Cl)ccc1C2=O,-23%
9,Nc1c(NCCC2=CCCCC2)c(=O)[nH]c(=O)n1Cc1ccccc1,-26%
10,COCCCn1c(SCC(=O)N2CCCC(C)C2)nnc1-c1ccco1 (stereo not shown),-20.2%
11,Fc1ccc(CNc2nc3ccccc3n3cnnc23)cc1,-3.58%
12,Cc1ccccc1SCC(=O)OCC(=O)Nc1sccc1C(N)=O,6.58%
13,CC(=O)C1=C(C)NC(=O)CC1c1ccc(Br)cc1 (stereo not shown),13.1%
14,COC(=O)C[C@]1(C(=O)OC)CN(C#N)N(c2ccc(Cl)cc2)C12c1ccccc1-c1ccccc12,-5.93%
15,CCOC(=O)c1ccc(Oc2c(C)oc3cc(OS(C)(=O)=O)ccc3c2=O)cc1,-66%
16,O=C(NCc1ccc(Cl)cc1)c1ccccc1CCc1ccccc1,-1.72%
17,CC(OC(=O)C1=COCCO1)C(=O)Nc1cc(S(=O)(=O)N2CCCCC2)ccc1Cl (stereo not shown),-7.13%
18,O=C(c1ccc(F)cc1F)N1CCCC(c2nc(-c3cccs3)no2)C1 (stereo not shown),-17.7%
19,O=C(CCNS(=O)(=O)c1ccccc1F)N1CCN(S(=O)(=O)c2cccc(F)c2)CC1,-2.7%
20,CCc1nnc(NC(=O)c2cc3ccccc3oc2=O)s1,14.7%
21,COc1ccc(OC)c(S(=O)(=O)NCc2csc(-c3ccccc3)n2)c1,-11.1%
22,COc1ccc(Cc2nnc(NC(=O)c3cc(OC)cc(OC)c3)s2)cc1,18.2%

row,Compound,"hERG current change (%, negative = inhibition) at 10uM"
1,CCC1(Cc2ccccc2)NC(=O)c2ccccc2O1 (stereo not shown),2.36%
2,CN1CCN(S(=O)(=O)c2cccc(C(=O)N(c3ccccn3)C3CCCCC3)c2)CC1,-14.5%
3,CC(=O)N1CCN(c2ccc(NCc3ccc(C(C)C)cc3)cc2)CC1,-2.61%
4,CCOc1ccc(NC(=O)CCC(=O)Nc2cc(OC)c(NC(=O)c3ccco3)cc2OC)cc1,10.4%
5,COc1ccc(NC(=O)CN(c2cc(C)cc(C)c2)S(=O)(=O)c2c(C)noc2C)cc1OC,-1.78%
6,O=C(Nc1cc(C(F)(F)F)ccc1Cl)c1cc2nc3c(c(C(F)(F)F)n2n1)CCCC3,8.44%
7,O=C(COc1ccccc1)Nc1ccccc1C(=O)NC1CC1,-12.1%
8,Cc1ccc(S(=O)(=O)N2CCN(c3ccc([N+](=O)[O-])c(NCCN4CCOCC4)c3)CC2)cc1,6.37%
9,Cc1onc(-c2ccccc2Cl)c1C(=O)N(C)CC(=O)Nc1ccc(F)c(F)c1F,-32.7%
10,O=c1c2c([nH]c3ccccc13)CCCC2,19.9%
11,CCc1ccc(CN(C)C(=O)C2CCC(=O)N(CC3CCCCC3)C2)cc1 (stereo not shown),-21.1%
12,COc1ccc(/C=C/C(=O)OCCCN(C)C)cc1.Cl,-27.2%
13,COc1ccc(C(=O)NCC(=O)N=Nc2c(O)n(C)c3ccccc23)cc1OC,-6.6%
14,CCC(C)(C(=O)NC1CCCCC1)N(C(=O)Cc1cccs1)c1ccccc1 (stereo not shown),-13.5%
15,Cc1nn2c3ccccc3nc2c2ccccc12,-17.5%
16,C#CCNC(=O)C1=C[C@H](c2ccccc2)C[C@H](OCCCCO)O1,11.2%
17,COc1cc(C(=O)OCC(=O)Nc2cc(C)on2)cc(OC)c1OC,-12.4%
18,CCCc1ccc(C(=O)Cn2nc(C(=O)O)c3ccccc3c2=O)cc1,10.8%
19,O=C(CCCn1c(SCC(=O)Nc2ccccc2C(F)(F)F)nc2ccccc2c1=O)NCC1CCCO1 (stereo not shown),-23%
20,CN(C)CCCNC(=O)/C(=N\O)c1ccccc1,25.7%
21,O=C1OC(c2ccccc2)C2(CCCC2)C(=O)C12CCCC2 (stereo not shown),-8.65%
22,COc1ccc2c(c1OC)C(=O)OC2N1C(=O)CC[C@H]1C(=O)NCC1CCCO1 (stereo partly shown),18.9%

row,Compound,"hERG current change (%, negative = inhibition) at 10uM"
1,CN1C(=O)CC(NNC(=O)c2ccccc2)C1=O (stereo not shown),7.6%
2,N#Cc1ccccc1OCC(=O)NC(=O)NCc1ccccc1,-11.6%
3,CCOC(=O)C(NC(C)=O)C(OC(C)=O)c1cccc(N(CCCl)CCCl)c1 (stereo not shown),-3.64%
4,CN(Cc1nc2ccccc2n1C)S(=O)(=O)c1ccc(Cl)cc1,3.21%
5,Cc1[nH]nc2c1C(c1cc(Br)cs1)C(C#N)=C(N)O2 (stereo not shown),17.3%
6,COc1ccccc1CNC(=O)C[n+]1ccccc1.[Cl-],3.72%
7,COC(=O)c1c(C)[nH]c(C(=O)/C=C/c2ccccc2)c1C,1.52%
8,Cc1cc(C(=O)OC2CCOC2=O)c2ccccc2n1 (stereo not shown),7.46%
9,CCn1c(/N=C/c2ccccc2O)nc2ccccc21,10.3%
10,CN1CCN(S(=O)(=O)c2cc(C(F)(F)F)ccc2Cl)CC1.Cl,10.4%
11,COc1ccc2nc(Nc3ccc4c(c3)OCO4)sc2c1,-3.96%
12,COc1ccc(-n2ncc(C(C)NS(=O)(=O)c3ccc(C)s3)c2C)cc1 (stereo not shown),-13%
13,COc1ccccc1CNC(=O)COC(=O)COc1ccccc1Cc1ccccc1,4.28%
14,COc1ccc(NC(=O)NCCCCc2ccccc2)cc1,1.06%
15,CC(C)(C)C1CCC2(CC1)NC(CO)(CO)CO2 (stereo not shown),6.53%
16,CCc1cccc(CC)c1NC(=S)Nc1cccc(Cl)c1Cl,8.82%
17,COc1ccc(S(=O)(=O)NCc2ccccc2Cl)cc1OC,2.08%
18,Oc1ccc(Br)cc1-c1cc(-c2ccccc2)n[nH]1,-3.11%
19,COc1ccc(/C=N/N=C2/NC(=O)C(CC(=O)O)S2)cc1OCc1ccc(Cl)cc1Cl (stereo not shown),27.6%
20,CC(CN1CCN(C/C=C/c2ccccc2)CC1)c1ccccc1.O=C(O)C(=O)O (stereo not shown),-59.6%
21,Cc1cc2c(cc(C(=O)NCc3cccnc3)n2Cc2ccc(Cl)cc2)o1,9.45%
22,Cc1ccc(N/C=C2\CCCCC2=O)nc1,10.2%
